According to PubChem BioAssay AID1030 (National Center for Advancing Translational Sciences (NCATS), 2008):
The campaign covered roughly 220,000 compounds. About 16,000 (7.3%) were called active. Inconclusive results, whose numbers are uncertain, are shown with a selection of clear calls. The call rests on the fitted dose curve; in most records, active means well fitted inhibition curve with a large enough effect (not every such curve was filed as active); inconclusive means small, poorly fitted or top-dose-only effect, or another doubt; inactive means no such curve, though single readings can be large or run the other way. Potencies of inconclusive entries are doubtful fits and often do not repeat.

molecular target: Aldehyde dehydrogenase 1A1 (Homo sapiens) (UniProt P00352); experiment: qHTS Assay for Inhibitors of Aldehyde Dehydrogenase 1 (ALDH1A1); details: Purified ALDH1A1, NADH fluorescence, propionaldehyde substrate; series mostly up to 75.3 µM; activity, negative = inhibition: at the top concentration;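 on activity, negative = inhibition: plate controls were no enzyme wells and a reference inhibitor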
Chain of UniProt P00352 (P00352 whole entry, looked up): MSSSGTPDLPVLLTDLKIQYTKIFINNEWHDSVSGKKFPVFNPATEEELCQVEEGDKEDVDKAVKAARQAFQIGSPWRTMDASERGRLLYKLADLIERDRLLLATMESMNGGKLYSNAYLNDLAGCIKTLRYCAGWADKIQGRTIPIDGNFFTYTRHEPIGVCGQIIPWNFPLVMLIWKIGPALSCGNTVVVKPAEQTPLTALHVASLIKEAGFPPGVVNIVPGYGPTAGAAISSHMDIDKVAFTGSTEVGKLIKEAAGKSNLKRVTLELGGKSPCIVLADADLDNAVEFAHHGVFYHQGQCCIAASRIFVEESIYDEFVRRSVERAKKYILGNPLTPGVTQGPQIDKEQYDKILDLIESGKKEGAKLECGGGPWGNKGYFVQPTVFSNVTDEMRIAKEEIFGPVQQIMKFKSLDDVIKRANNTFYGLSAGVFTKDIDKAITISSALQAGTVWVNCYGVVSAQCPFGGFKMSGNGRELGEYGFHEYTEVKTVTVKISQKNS
Potency means the concentration at half of the fitted maximal effect; tags describe the fitted curve by direction and shape.

activity, negative = inhibition, inactive:
CC(C)OC(=O)Nc1ccc2c(c1)N(C(=O)CCN1CCN(CCO)CC1)c1ccccc1CC2 4.32%
C=CCC(C)(O)c1ccsc1 (configuration not stated) 5.85%
COc1cc(CCC(=O)Nc2cccc(C(F)(F)F)c2)cc(OC)c1OC -3.03%
NC(=O)NCCC[C@H](N)C(=O)O 7.25%
O=C(COC(=O)c1cc[n+]([O-])cc1)Nc1cccc(Cl)c1Cl -7.35%
COc1ccc(-c2coc3cc(OC(C)=O)cc(OC(C)=O)c3c2=O)cc1 68.5%
Cc1cc(NO)c(C(C)C)cc1N=O -0.551%
O=C(CC(C(=O)O)P(=O)(c1ccccc1)c1ccccc1)c1ccccc1 (configuration not stated) 16.5%
COC(=O)NC(c1ccc2c(c1)OCO2)C(C(=O)OC)C(=O)OC (configuration not stated) -4.08%
O=C(O)CCNS(=O)(=O)c1ccc(Oc2ccccc2)cc1 7.09%

Potency, inconclusive:
COc1ccc(Oc2ncc3nc(-c4cc(F)cc(F)c4)c(=O)n(C)c3n2)cc1 39.8 µM [inhibitor, single point]
COc1cc(NC(=O)c2cccc(Br)c2)nc(OC)n1 28.2 µM [inhibitor, single point]
Cc1ccc(NC(=O)N/C=C/c2ccccc2)cc1 39.8 µM [inhibitor, single point]
CC(C)NS(=O)(=O)c1ccc(NC(=O)C(C)Oc2ccc(C(=O)c3ccccc3)cc2)cc1 (configuration not stated) 7.08 µM [inhibitor, partial curve]
CCN(C(=O)CN1CCN(c2cccc(C(F)(F)F)c2)CC1)c1c(N)n(Cc2ccccc2)c(=O)[nH]c1=O 12.6 µM [inhibitor, single point]
O=C(N/C(=C\c1ccc(Br)cc1)c1nc2ccccc2[nH]1)c1ccco1 28.2 µM [inhibitor, partial curve]
O=C(COC(=O)c1ccc2c(c1Cl)C(=O)c1ccccc1C2=O)NC1CC1 39.8 µM [inhibitor, single point]
Cc1[nH]c(=O)c(C#N)c2c1CSC(C)(C)C2 35.5 µM [inhibitor, single point]
CCOC(=O)c1c(NC(=O)c2c(Br)cnn2C)c(C#N)nn1-c1ccccc1 10 µM [inhibitor, partial curve]
NNC(=O)CNC(c1ccccc1)c1cc(Br)ccc1NC(=O)CCN1CCOCC1 (configuration not stated) 39.8 µM [inhibitor, single point]
CCCCCCCCCCSc1n[nH]c(N)n1 39.8 µM [inhibitor, single point]
CN(C)CCNc1cc(-c2ccncc2)nc2ccccc12 35.5 µM [inhibitor, single point]
C=CCn1c(SCC(=O)Nc2sccc2C(N)=O)nc2sc(CC)cc2c1=O 5.01 µM [inhibitor, partial curve]
c1ccc2oc(-c3csc(N4CCOCC4)n3)cc2c1 39.8 µM [inhibitor, single point]
COc1ccc(CCNC(=O)NC23CC4CC(CC(C4)C2)C3)cc1 35.5 µM [inhibitor, single point]
O=C(CSc1ncn(-c2ccccc2)n1)Nc1ccc2c(c1)OCCO2 39.8 µM [inhibitor, single point]
COc1ccc(Cc2noc(CN(C)CCN3CCc4ccccc4C3)n2)cc1OC 25.1 µM [inhibitor, partial curve]
Cc1ccccc1C(=O)NC(=S)Nc1cccc(NC(=O)C(C)C)c1 39.8 µM [inhibitor, single point]
COC(=O)c1ccccc1NC(=O)/C=C/c1cc(OC)c(OC)c(OC)c1 31.6 µM [inhibitor, partial curve]
Cc1cccc(OCC(=O)NC(C)C(=O)N/N=C/c2c(OCc3ccccc3)ccc3ccccc23)c1 (configuration not stated) 39.8 µM [inhibitor, single point]
CCCCCC1=C2CNC(CC(C)C)(C(=O)OC)C=C2C(C)C1=O (configuration not stated) 35.5 µM [inhibitor, single point]
COc1c(C)cccc1C(=O)Nc1cc(Cl)ccc1N1CCOCC1 35.5 µM [inhibitor, partial curve]
S=C(Nc1ccccn1)NC1CCCC1 14.1 µM [inhibitor, partial curve, poor fit]
Cc1ccc2cc3cc(C(=O)NCCCN4CCc5ccccc5C4)oc3nc2c1 35.5 µM [inhibitor, partial curve]
Cc1ccccc1Nc1ccc(S(=O)(=O)N2CCOCC2)cc1[N+](=O)[O-] 2.82 µM [inhibitor, full curve]
Cc1cc(C)nc(SCC(=O)N/N=C/C=C/c2ccccc2)n1 39.8 µM [inhibitor, single point]
O=C(Nc1ccc(Oc2cccnc2)cc1)c1ccccc1Cl 17.8 µM [inhibitor, partial curve]

Potency, active:
CCOC(=O)c1c(NC(=O)CSC(=S)N(C)C)sc(C)c1C 25.1 µM
Cc1ccc(-c2c(C(=O)N(C)Cc3ccccc3)oc(=O)c3ccccc23)cc1 1.78 µM
CCOC(=O)CN1C(=O)C(=O)c2cccc(C)c21 0.0251 µM
COCCN1C(=O)/C(=C/c2ccc(OCc3ccc(C(=O)O)cc3)c(OC)c2)SC1=Nc1ccccc1 1.12 µM
Cc1ccc(SCC(=O)N(Cc2nc(-c3ccccc3)no2)C(C)C)cc1 25.1 µM
CC(=O)Nc1ccc(NC(=O)C2CCN(C(=O)c3cccs3)CC2)cc1 12.6 µM
Cc1nc(C)c(C(=O)Nc2ncc([N+](=O)[O-])s2)o1 22.4 µM
COc1ccc(CN(C(C)=O)c2cccc(C)c2C)cc1 5.01 µM
Cc1ccc(-n2nc(C)c3c2OC(N)=C(C#N)C3c2ccccc2F)cc1 (configuration not stated) 3.98 µM
CC(CN1CCOCC1)C(=O)c1ccccc1 (configuration not stated) 31.6 µM
